This note sets out measurements from article PMC4336329 (PLoS ONE, 2015).

The campaign covered roughly 310,000 compounds. About 2,200 (0.71%) showed an effect of 50% or more. Effects have a minus sign here. This is one part of the list.

The target in the assay is human ether-à-go-go-related gene (hERG) potassium channel (human, UniProt Q12809). In words: primary screen, population patch clamp on CHO cells stably expressing hERG.
Chain of human ether-à-go-go-related gene (hERG) potassium channel (Q12809 whole entry, looked up): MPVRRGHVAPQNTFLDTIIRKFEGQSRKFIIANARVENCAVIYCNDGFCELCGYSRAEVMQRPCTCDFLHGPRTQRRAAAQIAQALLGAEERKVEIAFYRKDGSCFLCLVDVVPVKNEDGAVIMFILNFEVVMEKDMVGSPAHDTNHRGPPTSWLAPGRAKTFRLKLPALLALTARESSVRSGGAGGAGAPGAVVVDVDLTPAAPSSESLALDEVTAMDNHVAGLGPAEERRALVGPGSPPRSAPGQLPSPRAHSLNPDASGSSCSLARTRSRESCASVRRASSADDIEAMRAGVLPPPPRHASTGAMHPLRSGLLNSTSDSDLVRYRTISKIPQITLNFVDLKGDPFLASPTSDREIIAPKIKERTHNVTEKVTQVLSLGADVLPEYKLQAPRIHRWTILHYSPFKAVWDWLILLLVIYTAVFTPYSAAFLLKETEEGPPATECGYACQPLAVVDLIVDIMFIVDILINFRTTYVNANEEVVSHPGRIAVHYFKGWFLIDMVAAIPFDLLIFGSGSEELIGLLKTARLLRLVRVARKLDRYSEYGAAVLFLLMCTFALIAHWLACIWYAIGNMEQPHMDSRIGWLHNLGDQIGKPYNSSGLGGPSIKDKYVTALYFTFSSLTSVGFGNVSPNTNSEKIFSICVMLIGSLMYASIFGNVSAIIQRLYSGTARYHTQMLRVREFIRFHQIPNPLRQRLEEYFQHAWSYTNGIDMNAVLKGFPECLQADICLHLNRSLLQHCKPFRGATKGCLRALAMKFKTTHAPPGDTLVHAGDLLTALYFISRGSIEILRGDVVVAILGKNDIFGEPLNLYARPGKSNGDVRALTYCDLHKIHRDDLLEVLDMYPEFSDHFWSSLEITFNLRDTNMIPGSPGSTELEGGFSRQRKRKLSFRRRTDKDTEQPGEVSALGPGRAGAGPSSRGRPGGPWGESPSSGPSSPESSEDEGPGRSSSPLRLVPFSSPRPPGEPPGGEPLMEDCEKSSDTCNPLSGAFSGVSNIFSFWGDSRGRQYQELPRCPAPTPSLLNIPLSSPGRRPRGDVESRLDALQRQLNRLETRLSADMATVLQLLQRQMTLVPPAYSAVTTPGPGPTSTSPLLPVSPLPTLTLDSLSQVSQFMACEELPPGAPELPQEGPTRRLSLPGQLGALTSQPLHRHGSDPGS
Take `O=C(CCS(=O)(=O)c1ccccc1)Nc1nc2c(s1)COc1ccccc1-2`: the “hERG current change (%, negative = inhibition) at 1uM” value was found to be 7.29%.

For `O=C(Nc1ccc2nn(-c3ccccc3)nc2c1)c1ccc2c(c1)OCO2`, the “hERG current change (%, negative = inhibition) at 1uM” value was -1.05%.

In the case of `CC(C)C(=O)N(Cc1ccc2c(c1)OCO2)Cc1ccccn1.Cl`, the “hERG current change (%, negative = inhibition) at 1uM” value is recorded as 2.58%.

Take `O=C1c2cccc3cccc(c23)C(=O)N1/N=C/c1c(O)n(-c2ccccc2)c(=O)[nH]c1=O`: the “hERG current change (%, negative = inhibition) at 1uM” value is recorded as -2.72%.

As to `COc1cc(Nc2ccc(S(N)(=O)=O)cc2)c([N+](=O)[O-])nc1[N+](=O)[O-]`, the “hERG current change (%, negative = inhibition) at 1uM” value is reported as 16%.

Consider `O=[N+]([O-])c1cccc(Nc2nc(Cl)nc(Cl)n2)c1`, for which the “hERG current change (%, negative = inhibition) at 1uM” value is reported as 5.7%.

`CCOC(=O)C1CCCN(S(=O)(=O)c2ccc(S(N)(=O)=O)cc2)C1` (centres unmarked): the “hERG current change (%, negative = inhibition) at 1uM” value was 11.8%.

Regarding `S=C1NC(c2ccccc2)=NCN1c1ccccc1`, the “hERG current change (%, negative = inhibition) at 1uM” value is -0.263%.

Regarding `CCOc1ccccc1N1CCN(CC(=O)Nc2ncc(C)s2)CC1`, the “hERG current change (%, negative = inhibition) at 1uM” value came out at 11.6%.

Turning to `Fc1cccc(CN2CCSCC2)c1`, the “hERG current change (%, negative = inhibition) at 1uM” value was 17.9%.

Turning to `CCCn1c(SC(C)C(=O)O)nc2ccccc21` (centres unmarked), the “hERG current change (%, negative = inhibition) at 1uM” value is on record as -4.27%.

For `Cc1ccc(-c2nc3ccccc3c(=O)o2)cc1`, the “hERG current change (%, negative = inhibition) at 1uM” value turned out to be 17.4%.

`O=[N+]([O-])c1ccc2c(OCc3nnc(-c4ccccc4Br)o3)ncnc2c1`: the “hERG current change (%, negative = inhibition) at 1uM” value is on record as -49.8%.

On to `Cc1oc2cc(O)ccc2c(=O)c1N1C(=O)c2ccccc2C1=O`, for which the “hERG current change (%, negative = inhibition) at 1uM” value is on record as -0.537%.

In the case of `O=c1c(Cc2ccc(Cl)cc2Cl)c(O)ccn1Cc1ccncc1`, the “hERG current change (%, negative = inhibition) at 1uM” value was found to be 14.8%.

`COc1ccc(C(=O)c2ccccc2)c(O)c1`: the “hERG current change (%, negative = inhibition) at 1uM” value was -1.73%.

For `Cc1ccc(S(=O)(=O)Nc2cccc(C(=O)NCCN3CCOCC3)c2)cc1F`, the “hERG current change (%, negative = inhibition) at 1uM” value stood at 6.73%.

Consider `CN1CCN(C(c2ccc(C(F)(F)F)cc2)c2ccc3cccnc3c2O)CC1` (centres unmarked), for which the “hERG current change (%, negative = inhibition) at 1uM” value stood at 7.36%.

For the compound `COc1cc(/C=N/N2CCN(C3c4ccccc4-c4ccccc43)CC2)cc(OC)c1OC`, the “hERG current change (%, negative = inhibition) at 1uM” value is given as 6.99%.

For the compound `Cc1ccc(C(=O)NCC(=O)OCCCOC(=O)CNC(=O)c2ccc(C)c(C)c2)cc1C`, the “hERG current change (%, negative = inhibition) at 1uM” value is given as 4.69%.

As for `Cc1ccc(C(=O)Nc2nnc(CC(=O)N/N=C/c3ccncc3)s2)cc1`, the “hERG current change (%, negative = inhibition) at 1uM” value was found to be 9.31%.

Turning to `CCOC(=O)c1ccc(NS(=O)(=O)c2ccc3[nH]c(=O)[nH]c3c2)cc1`, the “hERG current change (%, negative = inhibition) at 1uM” value stood at 3.27%.

On to `CC1CCC2(CC1)NC(=O)N(CC(=O)NCCc1ccc(F)cc1)C2=O` (centres unmarked), for which the “hERG current change (%, negative = inhibition) at 1uM” value stood at 5.05%.

For the compound `O=C(NCc1ccccc1)c1cccc(NS(=O)(=O)c2cccc3cccnc23)c1`, the “hERG current change (%, negative = inhibition) at 1uM” value was 0.493%.

As for `CCOC(=O)/C(=N\Nc1cc(Cl)ccc1Cl)N1CCOCC1`, the “hERG current change (%, negative = inhibition) at 1uM” value was 5.9%.

With `O=C(NCC1CCCO1)c1cccc(NC(=O)c2ccc(Br)cc2)c1` (centres unmarked), the “hERG current change (%, negative = inhibition) at 1uM” value was determined as 4.34%.

For the compound `COc1cc(/C=N/NC(=O)CC2(C)OCCO2)cc(Br)c1O`, the “hERG current change (%, negative = inhibition) at 1uM” value worked out at 6.65%.

On to `CCOc1ccc(-c2cc(CCCC(=O)NCc3cccnc3)no2)cc1`, for which the “hERG current change (%, negative = inhibition) at 1uM” value worked out at 3.17%.

As to `CN(C)S(=O)(=O)c1cc(NC(=O)CN2CCN(c3ccccc3)CC2)ccc1Cl`, the “hERG current change (%, negative = inhibition) at 1uM” value is -0.733%.

Consider `O=C1C=C(NCc2ccco2)CCC1`, for which the “hERG current change (%, negative = inhibition) at 1uM” value turned out to be 15.2%.

On to `Cc1ccc(C)c(N2C(=O)CN=C2Nc2ccccc2Cl)c1.Cl`, for which the “hERG current change (%, negative = inhibition) at 1uM” value amounted to 8.36%.

As for `CCn1c(SCC(=O)NC(C)(C)C)nnc1-c1ccoc1C`, the “hERG current change (%, negative = inhibition) at 1uM” value is -9.4%.

`COc1ccccc1N1C(=O)CC(N2CCN(c3ccc(F)cc3)CC2)C1=O` (centres unmarked): the “hERG current change (%, negative = inhibition) at 1uM” value amounted to 7.06%.

Take `O=C(CCNC(=O)c1ccc(Br)cc1)Nc1ccc(S(=O)(=O)Nc2ncccn2)cc1`: the “hERG current change (%, negative = inhibition) at 1uM” value was 12.8%.

For `Cc1ccc(C(=O)O)cc1-c1ccc(C=C2C(=O)c3ccccc3C2=O)o1`, the “hERG current change (%, negative = inhibition) at 1uM” value is reported as 8.35%.

Consider `CN(C)CCCNC(=O)CCC1CCCCC1`, for which the “hERG current change (%, negative = inhibition) at 1uM” value is reported as 3.55%.

As to `O=C(CNC(=O)N1CC(=O)Nc2ccccc21)Nc1ccc(F)c(Cl)c1`, the “hERG current change (%, negative = inhibition) at 1uM” value came to 24%.

As for `CN(C)CCCN(Cc1cc2cc3c(cc2[nH]c1=O)OCCO3)C(=O)NC1CCCCC1`, the “hERG current change (%, negative = inhibition) at 1uM” value turned out to be 15.7%.

As to `c1cncc(-c2csc(-c3cccnc3)n2)c1`, the “hERG current change (%, negative = inhibition) at 1uM” value is 12.9%.

Regarding `Cc1cccc(NC(=O)c2cccc(S(=O)(=O)Nc3ccccc3C(=O)O)c2)c1`, the “hERG current change (%, negative = inhibition) at 1uM” value is 10.8%.

For `CCCCCCCC1CC(=O)C=C(C)C1C(=O)OCC` (centres unmarked), the “hERG current change (%, negative = inhibition) at 1uM” value worked out at 3.33%.

Turning to `COc1ccc(-c2cc(-c3nnc(COC(=O)C4CC4C)o3)c3ccccc3n2)cc1OC` (centres unmarked), the “hERG current change (%, negative = inhibition) at 1uM” value was found to be 1.46%.

On to `O=C(CCN1C(=O)[C@@H]2Cc3ccccc3CN2C1=O)NCc1ccccc1Cl`, for which the “hERG current change (%, negative = inhibition) at 1uM” value stood at 18%.

For `COc1ccc(C(N)c2nccc3cc(OC)c(OC)cc23)cc1OC` (centres unmarked), the “hERG current change (%, negative = inhibition) at 1uM” value came to 8.89%.

With `Cc1ccc(-c2[nH]c3ccccc3c2C(C[N+](=O)[O-])c2ccco2)cc1` (centres unmarked), the “hERG current change (%, negative = inhibition) at 1uM” value worked out at 13.6%.

On to `O=C(NCCN1CCOCC1)c1nn2c(c1Cl)NC(c1ccccc1)CC2C(F)(F)F` (centres unmarked), for which the “hERG current change (%, negative = inhibition) at 1uM” value is given as -0.737%.

For `O=C(c1ccccc1-c1ncc[nH]1)N1CCCC(Nc2ccc(F)cc2)C1` (centres unmarked), the “hERG current change (%, negative = inhibition) at 1uM” value was 8.42%.

In the case of `COc1cccc(CCNC(=O)CCc2nnc(Cc3cc(OC)ccc3OC)o2)c1`, the “hERG current change (%, negative = inhibition) at 1uM” value was 15.7%.

Consider `CCC(Oc1cc(Cl)ccc1Cl)C(=O)NN1C(=O)C2C3CCC(C3=C(C)C)C2C1=O` (centres unmarked), for which the “hERG current change (%, negative = inhibition) at 1uM” value amounted to 3.87%.

As to `CCOc1ccc(NS(=O)(=O)c2cc(NC(=O)c3ccc(C)cc3)ccc2Cl)cc1`, the “hERG current change (%, negative = inhibition) at 1uM” value is 11%.

In the case of `CCC(/C=N/NC(=O)c1ccccc1F)CC`, the “hERG current change (%, negative = inhibition) at 1uM” value is listed as 19.2%.

For `CC(OC(=O)CNC(=O)c1ccc2ccccc2c1)C(=O)N(C)C1CCCCC1` (centres unmarked), the “hERG current change (%, negative = inhibition) at 1uM” value is 11%.

On to `O=C1C(=O)N(C2CCCC2)C(=O)N1Cc1c(F)cccc1Cl`, for which the “hERG current change (%, negative = inhibition) at 1uM” value was 17.2%.

Take `C[C@H](NC(=O)c1[nH]cnc1C(=O)Nc1nccs1)c1ccccc1`: the “hERG current change (%, negative = inhibition) at 1uM” value amounted to 3.62%.

On to `CCOC(=O)N/N=C\c1ccc(OC/C=C/c2ccccc2)cc1`, for which the “hERG current change (%, negative = inhibition) at 1uM” value stood at 21.6%.

On to `CCOC(=O)C1=C(C)NC(=O)NC1c1ccc(N2CCC(c3ccccc3)=N2)cc1` (centres unmarked), for which the “hERG current change (%, negative = inhibition) at 1uM” value is -6.03%.
